Experimental data as given in a compilation of properties of binary mixtures (doi:10.1007/s11581-010-0511-5).
Some of these densities may be calculated back from excess volumes.

Experiment: xn = mol fraction of the nth substance listed
Conditions: 101 kPa

Q: With `CO` + CCCC[N+]1(C)CCCC1.O=S(=O)([N-]S(=O)(=O)C(F)(F)F)C(F)(F)F as the compound, how does the mass density (298.15 K, x2 = 0) read?
A: Its mass density is 788.6 kg/m3.

Q: And the mass density (303.15 K, x2 = 0)?
A: The mass density was 784 kg/m3.

Q: What about the mass density (308.15 K, x2 = 0) of the same compound?
A: Its mass density is 779.4 kg/m3.

Q: What about the mass density (313.15 K, x2 = 0) of the same compound?
A: The mass density was 774.8 kg/m3.

Q: What about the mass density (318.15 K, x2 = 0) of the same compound?
A: Its mass density is 770.3 kg/m3.

Q: For `CCCC[N+]1(C)CCCC1.O=S(=O)([N-]S(=O)(=O)C(F)(F)F)C(F)(F)F` + CO, which mass density (293.15 K, x1 = 0.11) is on record?
A: The mass density was 1103 kg/m3.

Q: And the mass density (293.15 K, x1 = 0.16)?
A: The mass density was 1183 kg/m3.

Q: What about the mass density (293.15 K, x1 = 0.21) of the same compound?
A: The mass density was 1234.2 kg/m3.

Q: What about the mass density (293.15 K, x1 = 0.32) of the same compound?
A: Its mass density is 1287.3 kg/m3.

Q: And the mass density (293.15 K, x1 = 0.42)?
A: Its mass density is 1313.6 kg/m3.

Q: And the mass density (293.15 K, x1 = 0.47)?
A: The mass density was 1324.1 kg/m3.

Q: And the mass density (293.15 K, x1 = 0.53)?
A: Its mass density is 1334 kg/m3.

Q: And the mass density (293.15 K, x1 = 0.58)?
A: Its mass density is 1343.1 kg/m3.

Q: And the mass density (293.15 K, x1 = 0.63)?
A: The mass density was 1350.9 kg/m3.

Q: What about the mass density (293.15 K, x1 = 0.68) of the same compound?
A: Its mass density is 1356.5 kg/m3.

Q: And the mass density (293.15 K, x1 = 0.74)?
A: The mass density was 1359.6 kg/m3.

Q: What about the mass density (293.15 K, x1 = 0.79) of the same compound?
A: The mass density was 1360.5 kg/m3.

Q: And the mass density (293.15 K, x1 = 0.84)?
A: Its mass density is 1360.2 kg/m3.

Q: What about the mass density (293.15 K, x1 = 0.89) of the same compound?
A: The mass density was 1361.3 kg/m3.

Q: And the mass density (293.15 K, x1 = 0.95)?
A: The mass density was 1368.2 kg/m3.

Q: What about the mass density (293.15 K, x1 = 1) of the same compound?
A: Its mass density is 1387 kg/m3.

Q: And the mass density (298.15 K, x1 = 0.05)?
A: Its mass density is 977 kg/m3.

Q: And the mass density (298.15 K, x1 = 0.11)?
A: Its mass density is 1098 kg/m3.

Q: And the mass density (298.15 K, x1 = 0.16)?
A: Its mass density is 1178 kg/m3.

Q: And the mass density (298.15 K, x1 = 0.21)?
A: The mass density was 1229.4 kg/m3.

Q: And the mass density (298.15 K, x1 = 0.32)?
A: Its mass density is 1282.6 kg/m3.

Q: What about the mass density (298.15 K, x1 = 0.37) of the same compound?
A: The mass density was 1297.2 kg/m3.

Q: And the mass density (298.15 K, x1 = 0.42)?
A: Its mass density is 1308.8 kg/m3.

Q: What about the mass density (298.15 K, x1 = 0.47) of the same compound?
A: Its mass density is 1319.3 kg/m3.

Q: And the mass density (298.15 K, x1 = 0.53)?
A: Its mass density is 1329.2 kg/m3.

Q: What about the mass density (298.15 K, x1 = 0.58) of the same compound?
A: Its mass density is 1338.3 kg/m3.

Q: What about the mass density (298.15 K, x1 = 0.63) of the same compound?
A: The mass density was 1346.1 kg/m3.

Q: What about the mass density (298.15 K, x1 = 0.74) of the same compound?
A: The mass density was 1355.2 kg/m3.

Q: What about the mass density (298.15 K, x1 = 0.79) of the same compound?
A: Its mass density is 1356.1 kg/m3.

Q: And the mass density (298.15 K, x1 = 0.84)?
A: Its mass density is 1355.9 kg/m3.

Q: What about the mass density (298.15 K, x1 = 0.89) of the same compound?
A: The mass density was 1357.1 kg/m3.

Q: And the mass density (298.15 K, x1 = 0.95)?
A: Its mass density is 1363.8 kg/m3.

Q: And the mass density (298.15 K, x1 = 1)?
A: The mass density was 1382 kg/m3.

Q: And the mass density (303.15 K, x1 = 0.05)?
A: Its mass density is 972 kg/m3.

Q: And the mass density (303.15 K, x1 = 0.11)?
A: The mass density was 1093 kg/m3.

Q: And the mass density (303.15 K, x1 = 0.16)?
A: Its mass density is 1173 kg/m3.

Q: And the mass density (303.15 K, x1 = 0.21)?
A: The mass density was 1224.5 kg/m3.

Q: What about the mass density (303.15 K, x1 = 0.32) of the same compound?
A: The mass density was 1277.8 kg/m3.

Q: What about the mass density (303.15 K, x1 = 0.37) of the same compound?
A: Its mass density is 1292.4 kg/m3.

Q: What about the mass density (303.15 K, x1 = 0.47) of the same compound?
A: Its mass density is 1314.5 kg/m3.

Q: What about the mass density (303.15 K, x1 = 0.53) of the same compound?
A: The mass density was 1324.3 kg/m3.

Q: And the mass density (303.15 K, x1 = 0.58)?
A: Its mass density is 1333.5 kg/m3.

Q: What about the mass density (303.15 K, x1 = 0.63) of the same compound?
A: Its mass density is 1341.3 kg/m3.

Q: What about the mass density (303.15 K, x1 = 0.68) of the same compound?
A: The mass density was 1347.2 kg/m3.

Q: What about the mass density (303.15 K, x1 = 0.74) of the same compound?
A: The mass density was 1350.6 kg/m3.

Q: And the mass density (303.15 K, x1 = 0.79)?
A: Its mass density is 1351.8 kg/m3.

Q: And the mass density (303.15 K, x1 = 0.84)?
A: Its mass density is 1351.8 kg/m3.

Q: What about the mass density (303.15 K, x1 = 0.89) of the same compound?
A: The mass density was 1353.2 kg/m3.

Q: What about the mass density (303.15 K, x1 = 0.95) of the same compound?
A: Its mass density is 1359.9 kg/m3.

Q: And the mass density (303.15 K, x1 = 1)?
A: Its mass density is 1378 kg/m3.

Q: What about the mass density (308.15 K, x1 = 0.05) of the same compound?
A: The mass density was 967 kg/m3.

Q: What about the mass density (308.15 K, x1 = 0.11) of the same compound?
A: Its mass density is 1088 kg/m3.

Q: What about the mass density (308.15 K, x1 = 0.16) of the same compound?
A: Its mass density is 1168 kg/m3.

Q: And the mass density (308.15 K, x1 = 0.21)?
A: Its mass density is 1219.7 kg/m3.

Q: And the mass density (308.15 K, x1 = 0.32)?
A: Its mass density is 1273.1 kg/m3.

Q: And the mass density (308.15 K, x1 = 0.37)?
A: The mass density was 1287.7 kg/m3.

Q: And the mass density (308.15 K, x1 = 0.42)?
A: The mass density was 1299.3 kg/m3.

Q: And the mass density (308.15 K, x1 = 0.53)?
A: Its mass density is 1319.5 kg/m3.

Q: And the mass density (308.15 K, x1 = 0.58)?
A: Its mass density is 1328.7 kg/m3.

Q: What about the mass density (308.15 K, x1 = 0.63) of the same compound?
A: Its mass density is 1336.6 kg/m3.

Q: What about the mass density (308.15 K, x1 = 0.74) of the same compound?
A: Its mass density is 1346.1 kg/m3.

Q: What about the mass density (308.15 K, x1 = 0.79) of the same compound?
A: Its mass density is 1347.5 kg/m3.

Q: What about the mass density (308.15 K, x1 = 0.84) of the same compound?
A: The mass density was 1347.7 kg/m3.

Q: And the mass density (308.15 K, x1 = 0.89)?
A: Its mass density is 1349.3 kg/m3.

Q: And the mass density (308.15 K, x1 = 0.95)?
A: The mass density was 1356.1 kg/m3.

Q: And the mass density (308.15 K, x1 = 1)?
A: Its mass density is 1374 kg/m3.

Q: What about the mass density (313.15 K, x1 = 0.05) of the same compound?
A: The mass density was 962 kg/m3.

Q: What about the mass density (313.15 K, x1 = 0.11) of the same compound?
A: The mass density was 1084 kg/m3.

Q: What about the mass density (313.15 K, x1 = 0.16) of the same compound?
A: The mass density was 1164 kg/m3.

Q: And the mass density (313.15 K, x1 = 0.21)?
A: Its mass density is 1214.9 kg/m3.

Q: What about the mass density (313.15 K, x1 = 0.26) of the same compound?
A: Its mass density is 1247.3 kg/m3.

Q: And the mass density (313.15 K, x1 = 0.37)?
A: The mass density was 1282.9 kg/m3.

Q: And the mass density (313.15 K, x1 = 0.42)?
A: The mass density was 1294.5 kg/m3.

Q: And the mass density (313.15 K, x1 = 0.47)?
A: Its mass density is 1304.8 kg/m3.

Q: And the mass density (313.15 K, x1 = 0.58)?
A: The mass density was 1323.8 kg/m3.

Q: And the mass density (313.15 K, x1 = 0.63)?
A: The mass density was 1331.8 kg/m3.

Q: And the mass density (313.15 K, x1 = 0.79)?
A: The mass density was 1343.2 kg/m3.

Q: And the mass density (313.15 K, x1 = 0.89)?
A: The mass density was 1345.3 kg/m3.

Q: And the mass density (313.15 K, x1 = 0.95)?
A: Its mass density is 1352.2 kg/m3.

Q: What about the mass density (318.15 K, x1 = 0.05) of the same compound?
A: The mass density was 957 kg/m3.

Q: And the mass density (318.15 K, x1 = 0.11)?
A: Its mass density is 1079 kg/m3.

Q: What about the mass density (318.15 K, x1 = 0.16) of the same compound?
A: Its mass density is 1159 kg/m3.

Q: And the mass density (318.15 K, x1 = 0.26)?
A: Its mass density is 1242.6 kg/m3.

Q: What about the mass density (318.15 K, x1 = 0.32) of the same compound?
A: The mass density was 1263.5 kg/m3.

Q: And the mass density (318.15 K, x1 = 0.37)?
A: Its mass density is 1278.1 kg/m3.

Q: What about the mass density (318.15 K, x1 = 0.42) of the same compound?
A: Its mass density is 1289.7 kg/m3.

Q: And the mass density (318.15 K, x1 = 0.47)?
A: Its mass density is 1300 kg/m3.

Q: What about the mass density (318.15 K, x1 = 0.53) of the same compound?
A: Its mass density is 1309.8 kg/m3.

Q: And the mass density (318.15 K, x1 = 0.58)?
A: Its mass density is 1319 kg/m3.

Q: And the mass density (318.15 K, x1 = 0.74)?
A: The mass density was 1337.1 kg/m3.

Q: What about the mass density (318.15 K, x1 = 0.89) of the same compound?
A: The mass density was 1341.1 kg/m3.

Q: What about the mass density (318.15 K, x1 = 1) of the same compound?
A: The mass density was 1365 kg/m3.
